# PubChem BioAssay AID902 (National Center for Advancing Translational Sciences (NCATS), 2007)
# The whole screen tested about 130,000 compounds, of which about 1,900 (1.5%) were called active. The shares of active, inactive and inconclusive entries below differ from those in the screen. Calls follow the shape of the dose curve; as a rule, active = well fitted cell-killing curve with a large enough effect; inconclusive = small, poorly fitted or top-dose-only effect; inactive = no such curve, though single readings can be large or run the other way. Where the call is inconclusive, the potency comes from a doubtful curve fit.
# Assay: qHTS Screen for Compounds that Selectively Target Cancer Cells with p53 Mutations: Cytotoxicity of p53ts Cells at the Nonpermissive Temperature; also: nearly all actives have a fitted effect of over 55% in size
# Conditions: H1299-p53A138V viability at 39C, ATP luminescence, 24 h; activity change, negative = cell killing: at 46.1 µM (top of the series)
# % is scaled to controls: 0 for no effect and ±100 for the full control effect; potency is read from the fitted curve at half-maximal effect; tags tell the direction and shape of the fitted curve.
Structure (SMILES),Potency,"activity change, negative = cell killing"
COc1cccc2[nH]c(-c3ccccn3)nc12,"inconclusive: 1.58 µM [cytotoxic, partial curve]",–
Cc1cc(C)cc(NC(=O)c2oc3ccc4c(c3c2C)C(=O)CC(C)(C)O4)c1,"inconclusive: 2 µM [cytotoxic, full curve, poor fit]",–
N=c1n(CCN2CCCCC2)c2ccccc2n1CC(O)COc1ccccc1 (stereo not drawn),"inconclusive: 10 µM [cytotoxic, partial curve]",–
Cc1cccc(-c2nc(CN3CCCC(C(=O)NCc4ccc(Cl)cc4)C3)c(C)o2)c1 (stereo not drawn),"inconclusive: 25.1 µM [cytotoxic, single point]",–
O=C(O)/C=C\c1ccc(Cn2ccnc2)cc1,inactive,–
COC(=O)C/C=C\[C@@H](C)[C@@H](/C=N\OCC[C@@H]1C=C[C@H](OC(C)=O)[C@H](COC(C)=O)O1)OC,–,inactive: -5.44% [at 9.22 µM]
CCN(CC)CCOC(=O)c1ccc(NC(=O)CSc2cc(=O)n(CC)c3ccccc23)cc1,active: 10 µM,–
CC1CCCCN1C(=O)Cn1c(=O)n(C2CCCCC2)c(=O)c2ccccc21 (stereo not drawn),inactive,–
CCOc1ccc(N2C(=O)CC(Sc3nc(C)cc(C)n3)C2=O)cc1 (stereo not drawn),inactive,–
COc1ccc(Nc2ncnc3onc(-c4ccc(Cl)cc4)c23)cc1Cl,"inconclusive: 5.01 µM [cytotoxic, partial curve]",–
COc1ccc(-n2cc(-c3ccccc3)c3c(NCc4cccc(Cl)c4)ncnc32)cc1,"inconclusive: 31.6 µM [cytotoxic, partial curve, poor fit]",–
O=C(Nc1cccc(C(F)(F)F)c1)c1cc2nc(-c3ccccc3)cc(C(F)(F)F)n2n1,inactive,–
O=C(Nc1nc(-c2ccc(Cl)s2)cs1)c1cccs1,"inconclusive: 25.1 µM [cytotoxic, single point]",–
O=C(CCCn1c(=O)c2cccn2c2ccccc21)Nc1cccc(Cl)c1,"inconclusive: 5.01 µM [cytotoxic, single point]",–
COc1ccc(-c2cccc(NS(=O)(=O)c3cccs3)c2)nn1,inactive,–
CCCc1nn2c(=O)cc(COC(=O)c3ccccc3NC(=O)C3CCCCC3)nc2s1,"inconclusive: 0.0079 µM [cytotoxic, full curve, poor fit]",–
c1cncc(Nc2nc(-c3ccncc3)cs2)c1,inactive,–
COc1cccc(N(C(=O)Cn2nnc(-c3ccc(C)o3)n2)C(C(=O)NC(C)(C)C)c2cccs2)c1 (stereo not drawn),inactive,–
COc1ccccc1Cn1c(=O)c2ccccc2n2c(Sc3ncnc4sccc34)nnc12,"inconclusive: 12.6 µM [cytotoxic, partial curve]",–
CCOc1ccc(-c2cc(CCCC(=O)NCc3cccnc3)no2)cc1,"inconclusive: 20 µM [cytotoxic, partial curve]",–
CCOc1ccccc1NC(=O)c1cc2ccc3cccnc3c2[nH]1,"inconclusive: 20 µM [cytotoxic, partial curve]",–
CCN(Cc1ccccc1)C(=O)c1cc2ccc3cccnc3c2[nH]1,active: 31.6 µM,–

Structure (SMILES),Potency,"activity change, negative = cell killing"
Cc1ccc(CNC(=O)c2cnn3c(C)c(Cc4c(F)cccc4Cl)c(C)nc23)cc1,"inconclusive: 31.6 µM [cytotoxic, single point]",–
Cc1cccc(NS(=O)(=O)c2ccc3nc(-c4ccccc4)[nH]c3c2)c1C,"inconclusive: 12.6 µM [cytotoxic, single point]",–
Cc1cccc(Cn2cccc2CNS(=O)(=O)c2ccc(C)c(C)c2)c1,–,inconclusive: -35.4% [cytotoxic]
O=C(Nc1cccc(Br)c1)c1cc(-c2ccc3c(c2)OCCO3)on1,"inconclusive: 1.26 µM [cytotoxic, partial curve]",–
CC(C)(C)OC(=O)N[C@@H](Cc1ccccc1)c1nnc(S(=O)(=O)Cc2cccc(F)c2)o1,"inconclusive: 31.6 µM [cytotoxic, single point]",–
COc1ccc(CNC(=O)c2nc(S(=O)(=O)Cc3ccccc3)ncc2Cl)cc1,active: 5.01 µM,–
CCOC(=O)N1CCN(Cc2nc3cc(NC(=O)c4ccccc4OC)ccc3n2C(C)C)CC1,"inconclusive: 10 µM [cytotoxic, single point]",–
NCCCS(=O)(=O)O,"inconclusive: 6.31 µM [cytotoxic, partial curve]",–
Cc1ccc(-n2c(=O)c3ccc(C(=O)NCc4ccco4)cc3n(Cc3ccc(Cl)cc3)c2=O)cc1,active: 12.6 µM,–
Fc1ccc2nc3[nH]c4ccccc4c3nc2c1,"inconclusive: 12.6 µM [cytotoxic, single point]",–
Cc1cc(C)n2nc(C(=O)Nc3ccc4c(c3)OCO4)nc2n1,"inconclusive: 12.6 µM [cytotoxic, single point]",–
Cc1cc(C)c2sc(N3CCN(C(=O)C4CC4)CC3)nc2c1,active: 7.94 µM,–
CC(C)OCCCNC(=O)CSc1c2c(nc3ccc(Cl)cc13)CCCC2,"inconclusive: 15.8 µM [cytotoxic, single point]",–
COc1ccc(Nc2cc(C(=O)NCCCN(C)Cc3ccccc3)c3ccccc3n2)cc1,"inconclusive: 7.94 µM [cytotoxic, partial curve]",–
COc1ccc(C(=O)Nc2ccccc2-c2nc3ccccc3s2)c(OC)c1,"inconclusive: 1.26 µM [cytotoxic, partial curve, poor fit]",–
CCOc1ccccc1CNC(=O)c1ccc(Cn2c(SCc3ccccc3)nc3cccnc32)cc1,"inconclusive: 12.6 µM [cytotoxic, partial curve]",–
Fc1ccc(N2CCN(Cc3cccn3-c3nnc(N4CCN(C5CCCCC5)CC4)s3)CC2)cc1,"inconclusive: 1 µM [cytotoxic, full curve, poor fit]",–
Cc1nc2c(c(C)nn2-c2ccccc2)c(C)c1CCC(=O)NCCc1ccc(Cl)cc1,"inconclusive: 10 µM [cytotoxic, partial curve]",–
c1ccc2c(NC3CCNCC3)nc(-c3ccoc3)nc2c1,inactive,–
CC(=O)Nc1ccc(Nc2ncnc3c2c(-c2ccccc2)cn3-c2ccc(C)c(Cl)c2)cc1,–,inconclusive: -33% [cytotoxic]
COc1ccc(Cl)cc1C(=O)Nc1ccc2c(c1)OCO2,"inconclusive: 31.6 µM [cytotoxic, single point]",–
